ChEMBL document CHEMBL5308541, “MAIP: An Open-Source Tool to Enrich High-Throughput Screening Output and Identify Novel, Druglike Molecules with Antimalarial Activity” (ACS Med Chem Lett, 2023)
The whole screen tested about 150,000 compounds, of which about 540 (0.36%) showed an effect of 50% or more. Some of the results follow.

Tested on: Plasmodium falciparum
Test: Primary screen in NF54 nanoGlo assay, in single point, at 2uM, 72h; a lower Z score goes with more inhibition
Type: functional, Erythrocyte
Conditions: timepoint 72 hour

For `C#CCOc1cc(F)ccc1NC(=O)N[C@@](C)(CO)C1CC1`, which “% Inhibition” value is on record?
Its value is -1%.

What about the Z score of the same molecule?
Its Z score is 0.16.

`Nc1nc(NC[C@H]2CCN(c3ccc(Cl)cc3)C2)nc2ccccc12` was tested. Which “% Inhibition” value did it give?
The value was 5%.

And the Z score?
Its Z score is -0.81.

Which results are given for `CN1CCN(c2nnnn2C[C@H]2CCOC2)Cc2cccnc21`?
% Inhibition: -11%; Z score: 2.32

`CC1(C)CC(NC2CNCCC2O)CC(C)(C)N1` (stereo unspecified) was tested. Which “% Inhibition” value did it give?
Its value is 2%.

And the Z score?
The Z score was -0.53.

How did the “% Inhibition” value turn out when `O=C1C[C@H](CNc2ncnc3cc[nH]c23)CN1C1CCCC1` was run?
The value was 1%.

And the Z score?
The Z score was -0.23.

With `Fc1ccc2c(c1)OCCC[C@@H]2NCCc1ccc2c[nH]nc2c1` as the molecule, how does the “% Inhibition” value read?
Its value is -6%.

And the Z score?
Its Z score is 1.34.

How did the “% Inhibition” value turn out when `COc1cccc(OC)c1S(=O)(=O)NCCN1CCCC(C)(C)C1` was run?
The value was -9%.

And the Z score?
The Z score was 1.55.

Which results are given for `CN(CC[C@H]1CCOC1)Cc1ccc2ccccc2n1`?
% Inhibition: 10%; Z score: -2.25

For `CC(C)c1ccc(C2(O)CCC(N[C@@H](C)c3ccc(-c4cncnc4)cc3)CC2)cc1` (stereo partly specified), which “% Inhibition” value is on record?
Its value is 0%.

And the Z score?
Its Z score is -0.02.

What does the source list for `Cc1cncc(-c2cnc3c(cnn3C3CCN(C)CC3)c2)c1`?
% Inhibition: 2%; Z score: -0.36

With `O=C(CN1CCN(C(=O)Nc2ccc3[nH]ncc3c2)CC1)N1CCCC1` as the molecule, how does the “% Inhibition” value read?
The value was 7%.

And the Z score?
Its Z score is -1.28.

For `COc1cc2nc(N3CCC(CN4CCN(C)CC4)CC3)cc(C)c2cc1OC`, which “% Inhibition” value is on record?
The value was -2%.

And the Z score?
The Z score was 0.44.

Which results are given for `CCC[C@H](C)c1cc(NS(=O)(=O)c2ccc(C(=O)OC)cc2)[nH]n1`?
% Inhibition: -6%; Z score: 1.07

`Cc1cc2nc(C(C)C)cc(NCCCN3CCC[C@H](O)C3)n2n1` was tested. Which “% Inhibition” value did it give?
The value was -4%.

What about the Z score of the same molecule?
The Z score was 0.71.

`CCN(CC)C(=O)Cc1ccc(Nc2ncnc3[nH]ncc23)cc1` was tested. Which “% Inhibition” value did it give?
The value was -2%.

What about the Z score of the same molecule?
The Z score was 0.39.

How did the “% Inhibition” value turn out when `Cc1ccc(-c2ccc3nnc(CNC(=O)c4cccc5[nH]ccc45)n3n2)cc1C` was run?
Its value is -1%.

What about the Z score of the same molecule?
The Z score was 0.19.

With `Cc1ccccc1Nc1c(C(F)(F)F)c(C(F)(F)C(F)(F)F)nc2c(C)cccc12` as the molecule, how does the “% Inhibition” value read?
The value was -8%.

What about the Z score of the same molecule?
Its Z score is 1.37.

With `CN(CC1(O)CCCC1)S(=O)(=O)N1CCCCCC1` as the molecule, how does the “% Inhibition” value read?
Its value is -1%.

And the Z score?
The Z score was 0.17.

How did the “% Inhibition” value turn out when `O=S(=O)(c1ccccc1NCCc1nc(-c2ccncc2)cs1)C(F)(F)F` was run?
Its value is -9%.

What about the Z score of the same molecule?
Its Z score is 1.58.

With `Fc1ccc(-c2ncnc3[nH]ccc23)c(Cl)c1` as the molecule, how does the “% Inhibition” value read?
The value was 9%.

And the Z score?
Its Z score is -1.86.

`Cc1cnc(NC(=O)N2CC[C@H](CO)C2)nc1-c1ccccc1` was tested. Which “% Inhibition” value did it give?
The value was -4%.

And the Z score?
The Z score was 0.83.

Which “% Inhibition” value does the source give for `CN1CCC(N(C)C[C@H](Nc2ncnc3ccccc23)c2ccccc2)CC1` here?
Its value is 98%.

What about the Z score of the same molecule?
Its Z score is -17.15.

Which “% Inhibition” value does the source give for `C[C@H](Nc1nc(NC2CC2)nc2c1CCNCC2)c1nnc(N)s1` here?
The value was -4%.

And the Z score?
Its Z score is 0.64.
